The campaign covered roughly 44,000 compounds. About 340 (0.77%) were called active. Inconclusive results (about 5%) are left out. Calls follow the shape of the dose curve; as a rule, active = well fitted inhibition curve with a large enough effect; inconclusive = small, poorly fitted or top-dose-only effect; inactive = flat fitted curve, though single readings scatter. The list shows a part of the results.
assay: Acumen qHTS Assay for Inhibitors of the mTORC1 Signaling Pathway in MEF (Tsc2-/-, p53-/-) Cells: Sytravon; conditions: phospho-rpS6 immunofluorescence/PI, 24 h; series mostly up to 38.3 µM; activity change, negative = inhibition: at the top concentration;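 also: plate controls were DMSO for no effect and rapamycin for full effect; nearly all actives have a fitted effect of over 50% in size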
How it was run: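 Cell-based qHTS: Tsc2-/- p53-/- MEF, 24 h cpd, 37 °C; fix/perm, anti-phospho-S6 Alexa-488 + PI; Acumen 488 nm scan; pS6/PI ratio, % positive cells; rapamycin 7.5 nM = inhibition ref; PI count = viability.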

Activity change, negative = inhibition, inactive:
COc1ccccc1N1CCN(C(CNC(=O)C(=O)NCCCN(C)C)c2cccnc2)CC1 (stereo not given) 4.67%
O=C1CC(c2ccccc2C(F)(F)F)c2c(c3ccccc3[nH]c2=O)O1 (stereo not given) -11.4%
N#Cc1c(NC(=O)c2cc3nc(-c4ccc(Br)cc4)cc(C(F)(F)F)n3n2)sc2c1CCCC2 -1.26%
COC(=O)c1cccc(Nc2c(-c3ccc(O)c(OC)c3)nc3nc[nH]n23)c1 -0.407%
COCc1cc(C)nc2sc3c(c12)NC(c1ccc(O)cc1)N(c1ccc(OC)cc1)C3=O (stereo not given) -4.73%
CCOc1ccc(NC(=O)C2Cc3ccccc3N2C(=O)c2ccccc2)cc1 (stereo not given) 9.04%
CCCCOc1ccc(CNC(=O)C2CCN(c3nnc(-n4cccc4CNc4ccc(C)cc4)s3)CC2)cc1 -0.926%
COc1ccc2c(c1)CCc1c(C(=O)Nc3cc(C)ccc3O)noc1-2 -10.3%
COc1cc(Cn2c(=O)sc3ccccc32)ccc1OC(C)C 9.01%
COc1ccccc1NC(=O)Cc1c(C(=O)O)[nH]c2ccc(Cl)cc12 -10.6%
COCCn1c(C)cc(O)c(C(c2ccccc2)N2CCN(C)CC2)c1=O (stereo not given) 6.07%
Cc1cccc(NC(=O)CSc2nc3ccc(NC(=O)c4ccco4)cc3s2)c1 -18.4%
Cc1ccc(C)c(N2CCN(CCCNC(=O)Nc3cc(Cl)ccc3C)CC2)c1 3.05%
COc1ccc(CNC(=O)Cc2csc3ccccc23)cc1OC -1.93%
CCc1nn(CC(=O)N2CCCCC2)c(=O)c2cc3sccc3n12 -3.08%
COc1cc(Br)c(/C=C(\C#N)c2nc3ccccc3[nH]2)cc1OC -11.8%
CC(NC(=O)c1cc(Sc2ccc(F)cc2F)nc2ccccc12)c1ccccc1 (stereo not given) 15.2%
CCc1ccccc1NC(=O)C1CCC(CNS(=O)(=O)c2ccc3c(c2)CC(C)N3C(C)=O)CC1 (stereo not given) -7.22%
CCOc1ccc(-c2nnc(SCC(=O)NCCC(C)C)nc2-c2ccc(OCC)c(OC)c2)cc1OC -1.64%
COc1ccc2nc(NC(=O)c3nc(SCc4ccc(F)cc4)ncc3Cl)sc2c1 3.06%
Cc1cn2c(=O)c(S(=O)(=O)NCCc3ccccc3)c(C)nc2s1 2.87%
CC(C)CN1CCc2nc(N3CCN(c4ncccn4)CC3)ncc2C1 13.6%
Cc1ccc(N2C(=O)CSC23C(=O)N(CC(=O)NC2CCCCC2)c2ccccc23)cc1 (stereo not given) 0%
CC(C)OCCCNC(=O)c1ccc(-n2c(-c3ccccc3)cc3c2CCCC3)cc1 0%
COc1ccc2nc(SCC(=O)c3c(C)[nH]c4ccccc34)nc(C)c2c1 1.99%
CCOc1ccc(OCC)c(NC(=O)C2CCN(S(=O)(=O)c3ccc(Br)s3)CC2)c1 6.82%
Cc1ccc(N2CCN(C(=O)Cc3c(C(=O)O)c(C)cn3C)CC2)c(C)c1 -3.6%
Cc1ccc(S(=O)(=O)c2nnn3c2nc(N2CCN(c4ccc(F)cc4)CC2)c2cc(Cl)ccc23)cc1C -3.98%
O=C(Nc1ccc(F)cc1)[C@H](CSCc1ccccc1)N1Cc2ccccc2C1=O -5.71%
O=C(COC(=O)CCCC1=NS(=O)(=O)c2ccccc2N1)Nc1ccc(Br)cc1 0.117%
COc1cccc(-n2c(=O)c3c(C)c(C(=O)N(C)C)sc3n(CC(=O)NCCc3ccc(OC)c(OC)c3)c2=O)c1 -8.47%
COc1ccc(-c2nc(C)c(CCNC(=O)Cc3ccc(F)cc3)s2)cc1OC -7.25%
CCc1ccc(NC(=O)C2CCN(C(=O)N3CC(CC)Oc4ccccc43)CC2)cc1 (stereo not given) 9.38%
CCc1ccc(NC(=O)CSc2nc3nccnc3c(=O)n2CCc2c[nH]c3ccccc23)cc1 0%
Cc1ccc(NC(=O)C(=O)NCC(c2cccnc2)N2CCN(C)CC2)cc1F (stereo not given) -13.6%
COC(=O)C(CCSC)NC(=O)c1c(C)oc2ncn(CC(C)C)c(=O)c12 (stereo not given) 1.45%
CCOC(=O)c1ccc(NC(=O)c2ccc3c(c2)NC(=O)c2ccccc2S3)cc1 -9.83%
Cc1c(Cl)cccc1NC(=O)CSc1ncccc1C(=O)Oc1ccccc1Cl 6.9%
COc1ccc(CNC(=O)c2cccc(-n3cnc4cccnc43)c2C)cc1 -1.29%
COc1cccc(C(=O)Nc2ccc(-c3cn4cccnc4n3)cc2)c1OC -28.7%
CCOCCSc1c(C)cnc2c1c(=O)n(C)c(=O)n2C -10.3%
COc1cc2ccccc2cc1C(=O)Nc1ccc(Cl)c(-c2nc3ccccc3o2)c1 3.87%
CCn1ccc2cc(S(=O)(=O)N3CCC(C(=O)NCCc4ccc(C)cc4)CC3)ccc21 0.0358%
COc1cc(OC)cc(C(=O)NCC(c2cccs2)S(=O)(=O)c2ccc(F)c(C)c2)c1 (stereo not given) -0.0841%
COc1cc(C(=O)N2CCN(CCc3ccccn3)CC2)cc(OC)c1OC -3.54%
COc1ccccc1NC(=O)CN1C(=O)C2(SCC(=O)N2c2ccc(C)c(C)c2)c2ccccc21 (stereo not given) -5.74%
Cc1ccc(N(CC(=O)Nc2cc(C)cc(C)c2)S(=O)(=O)c2cccc3nonc23)cc1 2.19%
CC1=C(c2ccc(C)cc2)S(=O)(=O)N(Cc2ccc(C(=O)Nc3ccc(F)cc3C)cc2)C1=O -19.4%
CC(C)c1ccc(C2N=C(N)Nc3nc4ccccc4n32)cc1 (stereo not given) -0.977%
CC(CC(=O)Nc1ccc(Br)cc1F)S(=O)(=O)c1ccc2c(c1)NC(=O)CO2 (stereo not given) -7.27%
CSc1ncc(Cl)c(C(=O)N(Cc2ccc(N(C)C)cc2)Cc2ccco2)n1 -4.78%
Cc1c(Cl)cccc1NC(=O)C(C)n1nnc2sc3c(c2c1=O)CCCC3 (stereo not given) 1.73%
Cc1c(C)n(C)c2ccc(C(=O)N3CCN(c4ccccc4)CC3)cc12 -4.62%
CCCCOc1ccc(CNC(=O)CCCN2C(=O)CSc3c2c(C)nn3-c2ccccc2)cc1 2.67%
CCOC(=O)c1ccccc1NC(=O)c1sc2nc3n(c(=O)c2c1C)CCCC3 -5.13%
CCc1ccc(CNC(=O)CN2C(=O)c3cccnc3Oc3ccc(C)cc32)cc1 -13%
Cc1ccc2c(=O)cc(C(=O)Nc3ccc(S(=O)(=O)N4CCCCCC4)cc3)oc2c1C 2.72%
Cc1cc(C)cc(NC(=O)Cn2c(=O)c3ccccc3n3nncc23)c1 -0.894%
Cc1ccc(CNC(=O)Cn2cc(C(=O)c3ccc(F)cc3)c(=O)c3ccc(C)nc32)cc1 7.09%
CCOC(=O)C1CCN(C(=O)C2CCN(C3=NS(=O)(=O)C(c4ccc(C)c(C)c4)=C3C)CC2)CC1 -8.53%
Cc1cccc(C2CC(=O)Oc3c2c(=O)n(C)c2ccccc32)c1 (stereo not given) -13.7%
CCc1ccc(Cc2cnc(NC(=O)c3ccc4c(c3)CC(c3ccccc3)OC4=O)s2)cc1 (stereo not given) -0.364%
O=C(Cn1c(=O)n(-c2ccc(F)c(Cl)c2)c(=O)c2sc3ccccc3c21)NC1CCCC1 -7.75%
Cc1ccc(-n2c(=O)c3oc4ccccc4c3n(Cc3ccccc3F)c2=O)cc1C -4.22%
CC(C)CCNC(=O)C1CCC(Cn2c(=O)c3sccc3n(CC(=O)NC(C)C)c2=O)CC1 (stereo not given) -3.24%
CCC(C)NC(=O)C(=O)Nc1c2c(nn1-c1ccccc1)CS(=O)(=O)C2 (stereo not given) -0.661%
COc1ccc(CNC(=O)c2cc3c(s2)-c2ccccc2OC3)cc1 -6.84%
CCOC(=O)c1c(NC(C)=O)c2c3c(sc2n1Cc1nc(-c2ccccc2C)oc1C)CCCC3 1.93%
O=C(Nc1nc2ccc(F)cc2s1)c1nc(S(=O)(=O)Cc2ccccc2)ncc1Cl -8.5%
COc1ccc(NC(=O)CSc2nc3c(oc4ccccc43)c(=O)n2-c2ccc(C)c(C)c2)cc1 1.38%
CC1CN(C(=O)CCC(=O)NCc2ccc(F)cc2)c2cc(Cl)ccc2O1 (stereo not given) 0.0685%
O=C(c1ccc2c(c1)N(Cc1ccc(Cl)cc1)C(=O)c1ccccc1S2(=O)=O)N1CCCCC1 0.838%
O=C(CN1C(=O)CCSc2ccccc21)Nc1ccccc1F -25.8%
CCOc1ccc(CCNC(=O)C2COc3ccccc3C2)cc1OCC (stereo not given) 1.62%
Cc1nc2nc(SCC(=O)NCCc3ccc(Cl)cc3)nn2c(C)c1Cc1ccccc1 -7.02%
COC(=O)c1sc2cccc(F)c2c1S(=O)(=O)N1CCN(c2ccc(F)cc2)CC1 -10.7%
CCCSc1ncc(Cl)c(C(=O)Nc2nc3ccc(OCC)cc3s2)n1 7.1%
Cc1ccc(CNC(=O)c2ccc3c(=O)n(-c4ccccc4)c(=O)[nH]c3c2)cc1 -0.207%
COc1ccc2c(c1)CCc1c(C(=O)Nc3c(C)nn(Cc4ccc(Cl)c(Cl)c4)c3C)noc1-2 0.696%
Cc1ccc(S(=O)(=O)c2nc(-c3cccc(C)c3)oc2N2CCN(c3ccccc3)CC2)cc1 -1.21%
COc1cc(OC)c(NC(=O)NCc2ccc3c(c2)CCN3C(=O)c2ccccc2)cc1Cl -1.16%
CCc1ccccc1NC(=O)CSc1nc(-c2ccccc2OC)nc2c1Cc1c(CO)cnc(C)c1O2 -6.27%
Cc1ccc2c(c1)cc1c(=O)n(CC(=O)NC3CCCCC3)nc(C)n12 -2.53%
CC(=O)c1cc(C(=O)Nc2cc(C)cc(C)c2)c2ccccn12 -0.412%
Cc1cccn2c(=O)c3cc(C(=O)NCc4ccccc4)c(=N)n(CCOCCO)c3nc12 0.628%
CCOC(=O)CC1c2cc(OCC)c(OCC)cc2CCN1C(=O)Nc1cccc(Cl)c1 (stereo not given) -7.6%
CCC(=O)Nc1ccc(-c2nnc3c4ccccc4c(C)nn23)cc1 0.0732%
O=C(NCc1ccccc1)c1ccc2c(c1)CCN2S(=O)(=O)c1ccccc1 -15.7%
CCCc1ccc(S(=O)(=O)N2CCC(Oc3ccc(-n4cnnn4)cc3)CC2)cc1 -3.3%
CCOC(=O)c1[nH]c(C)c(CCC(=O)NCc2ccccc2Cl)c1C 0%
CNC(=O)c1ccc(Nc2nnc(-c3ccc(C)c(S(=O)(=O)N(C)C)c3)c3ccccc23)cc1 12.1%
Cc1ccc(NC(=O)CSc2nc(=O)n(CCCN(C)C)c3c2CCC3)cc1F -2.74%
CCCCC(CC)CNC(=O)C1CCC(CNS(=O)(=O)c2cccc3nsnc23)CC1 (stereo not given) -18.6%
Cc1cc(C)cc(OCCCn2c(CCNC(=O)C3CCCCC3)nc3ccccc32)c1 0.0309%
COc1ccc(CCNC(=O)CCCn2c(=O)c3ccccc3n(Cc3c(C)cc(C)cc3C)c2=O)cc1OC -3.54%
